Laboratory results from PubChem BioAssay AID588579 (National Center for Advancing Translational Sciences (NCATS), 2011).
Screen size: about 400,000 compounds; about 2,200 (0.55%) were called active. Inconclusive means that the source gave no clear call. Such entries were picked first, then a sample of the others. The call rests on the fitted dose curve; in most records, active means well fitted inhibition curve with a large enough effect; inconclusive means small, poorly fitted or top-dose-only effect, or another doubt; inactive means no such curve, though single readings can be large or run the other way. A potency beside an inconclusive call is a rough fit, not a confirmed value.

target: DNA polymerase kappa (Homo sapiens) (UniProt Q9UBT6); assay: qHTS for Inhibitors of Polymerase Kappa; conditions: purified Pol kappa, fluorescent DNA synthesis assay, 10 min; series mostly up to 107 µM
How it was run: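 Here, compound and 10 nM enzyme are combined for 15 min at room temperature; adding 50 nM substrate (final) starts DNA synthesis, tracked by fluorescence at 0 and 10 min against buffer-only wells.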
Potency means the concentration at half of the fitted maximal effect; tags describe the fitted curve by direction and shape.

Sequence of UniProt Q9UBT6 (Q9UBT6 whole entry, looked up): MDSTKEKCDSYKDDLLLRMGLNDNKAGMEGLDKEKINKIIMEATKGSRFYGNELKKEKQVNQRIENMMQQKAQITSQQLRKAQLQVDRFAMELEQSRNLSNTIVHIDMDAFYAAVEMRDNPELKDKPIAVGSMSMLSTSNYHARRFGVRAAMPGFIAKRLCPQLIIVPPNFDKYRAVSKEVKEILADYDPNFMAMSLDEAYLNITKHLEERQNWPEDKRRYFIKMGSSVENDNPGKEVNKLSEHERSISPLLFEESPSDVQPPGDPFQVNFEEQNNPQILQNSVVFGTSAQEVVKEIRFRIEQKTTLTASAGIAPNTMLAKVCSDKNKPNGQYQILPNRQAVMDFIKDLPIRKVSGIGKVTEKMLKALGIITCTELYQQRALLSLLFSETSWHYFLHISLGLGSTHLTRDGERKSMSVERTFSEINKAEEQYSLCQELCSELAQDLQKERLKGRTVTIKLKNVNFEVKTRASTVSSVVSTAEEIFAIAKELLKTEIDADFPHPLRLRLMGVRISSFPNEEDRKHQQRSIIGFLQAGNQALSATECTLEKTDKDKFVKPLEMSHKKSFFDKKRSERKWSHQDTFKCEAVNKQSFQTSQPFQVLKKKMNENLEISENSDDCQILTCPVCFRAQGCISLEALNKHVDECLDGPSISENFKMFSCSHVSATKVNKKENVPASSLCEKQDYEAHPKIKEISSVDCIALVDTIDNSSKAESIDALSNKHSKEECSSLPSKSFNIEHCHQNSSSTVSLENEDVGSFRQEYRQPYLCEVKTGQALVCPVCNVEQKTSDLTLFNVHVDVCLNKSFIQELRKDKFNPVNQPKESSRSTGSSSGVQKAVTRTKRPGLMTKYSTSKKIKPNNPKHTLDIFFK

Potency, inconclusive:
Cc1ccc(OCC(=O)N/N=C/C=C/c2ccco2)cc1 56.2 µM [inhibitor, partial curve, poor fit]
COc1ccc(OC)c2cc3ccccc3cc12 89.1 µM [inhibitor, partial curve, poor fit]
CCOc1ccc(CCNC(=O)COC(=O)c2cccc(S(=O)(=O)N3CCCCC3)c2)cc1OCC 89.1 µM [inhibitor, single point]
CCOC(=O)c1sc(NC(=O)C2c3ccccc3Oc3ccccc32)c(C(=O)OCC)c1C 89.1 µM [inhibitor, single point]
Cc1cccc(N=C2NC(=O)/C(=C/C=C/c3ccco3)S2)c1 56.2 µM [inhibitor, partial curve, poor fit]
COc1ccc(C(=O)Nc2ccc(-c3nnc4n3CCCCC4)cc2)cc1OC 89.1 µM [inhibitor, single point]
O=C(/C=C/c1ccccc1)Nc1sc2c(c1C(=O)O)CCC2 89.1 µM [inhibitor, partial curve, poor fit]
Cc1ccc(-c2cc(C(=O)N/N=C/C(Br)=C/c3ccccc3)n[nH]2)o1 89.1 µM [inhibitor, partial curve, poor fit]
Cc1ccc2cc3cc(C(=O)NCc4ccco4)oc3nc2c1 89.1 µM [inhibitor, partial curve, poor fit]
COc1ccc(NC(=O)c2cc(-c3ccc(C)o3)nc3ccccc23)cc1OC 89.1 µM [inhibitor, partial curve, poor fit]
O=C(c1cc2ccccc2oc1=O)N(Cc1ccco1)Cc1cccs1 79.4 µM [inhibitor, partial curve, poor fit]
CC1CCCC(C)N1C(=O)COC(=O)/C=C/c1ccc(Br)o1 (stereo not given) 89.1 µM [inhibitor, single point]
COC1=C(N)C(=O)c2nc(C)ccc2C1=O 56.2 µM [inhibitor, partial curve, poor fit]
CCOC(=O)C1=C(C)NC(=O)NC1c1ccco1 (stereo not given) 89.1 µM [inhibitor, single point]
COC(=O)c1ccc(CS(=O)(=O)c2ccc(F)cc2)o1 89.1 µM [inhibitor, single point]
CCC(=O)N1CCc2cc(S(=O)(=O)NC(CC(C)C)C(=O)NCCc3ccccc3)ccc21 (stereo not given) 89.1 µM [inhibitor, single point]
COc1ccc(COC[C@H](C)[C@H](O[Si](C)(C)C)[C@@H](C)[C@H]2OC(=O)[C@H]2C)cc1 89.1 µM [inhibitor, single point]
COc1ccc(NC(=O)Nc2ccc(N3CCCC3=O)cc2)cc1OC 7.08 µM [inhibitor, partial curve, poor fit]
N=C1C(c2nc(-c3cccc([N+](=O)[O-])c3)cs2)=C(O)CN1NC(=O)c1ccco1 100 µM [inhibitor, single point]
C#CCOC(=O)CCCNc1ccc([N+](=O)[O-])cc1[N+](=O)[O-] 79.4 µM [inhibitor, single point]
Cn1ccsc1=NC(=O)c1ccc([N+](=O)[O-])o1 89.1 µM [inhibitor, single point]
COc1ccc(NC(=O)CSc2nnc(-c3ccco3)c(-c3ccco3)n2)cc1OC 89.1 µM [inhibitor, single point]
CCc1ccc(S(=O)(=O)Nc2cc(SCC(=O)O)c(O)c3ccccc23)cc1 89.1 µM [inhibitor, single point]
O=C(COc1ccccc1)Nc1ccc(S(=O)(=O)NCc2ccco2)cc1 89.1 µM [inhibitor, single point]
CSc1ccccc1NC(=O)c1noc2c1CCC2 56.2 µM [inhibitor, partial curve, poor fit]
COC(=O)C1=C[C@@H](C(=O)OC)[C@@H]2C3=C(C(=O)C2(C)C)[C@H](C)n2c(=O)n(C)c(=O)n2[C@@H]3C1 89.1 µM [inhibitor, single point]
C#CCOCCOCCOCCNc1nc(N2CCN(C(=O)CCCCCCCCCCNC(=O)[C@H]([C@@H](C)CC)n3cc(CCCCCN)nn3)CC2)nc(N2CCN(C(=O)CCCCCCCCCCNC(=O)[C@@H]([C@H](C)O)n3cc(C)nn3)CC2)n1 89.1 µM [inhibitor, single point]
CCC(=O)NC[C@H](Cc1ccc(OCCc2nc(-c3ccccc3)oc2C)cc1)N/C(C)=C\C(=O)c1ccc(C(F)(F)F)cc1 8.44 µM [inhibitor, partial curve, poor fit]
CC(C)C(C(=O)NCC1CCCO1)N(CC1CCCO1)C(=O)CNS(=O)(=O)c1ccccc1 (stereo not given) 89.1 µM [inhibitor, partial curve, poor fit]
COc1ccc(-c2nc3cnc(N4CCNCC4)nc3n(Cc3cccc(OC)c3)c2=O)cc1 25.1 µM [inhibitor, partial curve]
O=C(COC(=O)c1ccc(F)cc1F)Nc1ncccn1 56.2 µM [inhibitor, partial curve, poor fit]
O=C(O)c1ccc(/C=N/NC(=O)c2cc(-c3ccc4c5c(cccc35)CC4)n[nH]2)cc1 89.1 µM [inhibitor, single point]

Potency, active:
C=C(C)C(=O)Nc1cccc(C2=NOC3(C2)C[C@@H](C(N)=O)N(C(=O)/C=C/CC)C3)c1 (stereo not given in full) 28.2 µM
CC(C)c1nc2sc3c(SCC(=O)NCc4ccco4)ncnc3c2c2c1CCC2 79.4 µM
O=C(c1cc(-c2ccco2)on1)N1CCCc2ccccc21 79.4 µM
Cc1cc(O)c(C=O)c2c1C(=O)Oc1c(COC(=O)/C=C/C(=O)O)c(O)c(C(=O)O)c(C)c1O2 3.55 µM
COC(C(=O)C(O)C(C)O)C1Cc2cc3cc(OC4CC(OC5CC(O)C(O)C(C)O5)C(O)C(C)O4)c(C)c(O)c3c(O)c2C(=O)C1OC1CC(OC2CC(OC3CC(O)C(OC)C(C)O3)C(O)C(C)O2)C(O)C(C)O1 (stereo not given) 79.4 µM
CCN(CC)C(=O)CC(c1ccc2c(c1)OCO2)c1c(OC)cc(OC)c2ccc(=O)oc12 (stereo not given) 79.4 µM
O=C(Nc1ccc(S(=O)(=O)Nc2nccs2)cc1)c1nn(-c2ccc(F)cc2)ccc1=O 89.1 µM
COc1ccccc1N(CC(=O)NCc1ccco1)S(=O)(=O)c1ccc(C)cc1 31.6 µM
O=C(O)CN(CC(=O)O)Cc1cc2c(-c3ccccc3C(=O)O)c3cc(CN(CC(=O)O)CC(=O)O)c(=O)cc-3oc2cc1O 7.08 µM
CCCNc1c(F)c(F)c2c(C)c3ccccc3nc2c1F 79.4 µM
O=c1cc(CSc2nnc(-c3cccs3)n2Cc2ccccc2)nc2sc3ccccc3n12 79.4 µM
O=C(/C=C/c1ccco1)Nc1cccc2cccnc12 28.2 µM
O=C1C[C@@H](c2ccc(O)c(O)c2)Oc2cc(O[C@H]3O[C@@H](CO)[C@H](O)[C@@H](O)[C@@H]3O)cc(O)c21 21.2 µM
O=C(COC(=O)c1cc2c(s1)CCC2)Nc1ccc(F)cc1 31.6 µM

Potency, inactive:
COc1ccc(-c2noc(CCC(=O)N3CCN(c4ccccc4Br)CC3)n2)cc1
COc1ccc(OCc2n[nH]c(=S)n2N)cc1
Cc1c(Cc2ccccc2)c(=O)[nH]c(=O)n1C
COc1cccc(C=Nc2ccc(C)c(F)c2)c1O
Cc1ccc(O)c(NC(=O)c2cc3nc4c(c(C(F)(F)F)n3n2)CCc2ccccc2-4)c1
CCOCCCNCc1ccc(OC)cc1
Cn1nnc(NC(=S)NC(=O)c2cc3ccccc3o2)n1
Cc1ccc(C)c(S(=O)(=O)c2nnn3c2nc(NC2CCCCC2)c2sccc23)c1
CCc1nc2cccnc2n1-c1ccc(CC(=O)Nc2cccc(C)c2C)cc1
CC(C)(C)c1ccc(C(=O)NCCNC(=O)c2ccco2)cc1
Cc1ccc(NC(=O)Cn2c(=O)n(-c3ccc(C)cc3)c(=O)c3c2cnn3C)cc1
CC1(C)CC(=O)C2=C(C1)NC(=S)C(C#N)C21CCCCC1 (stereo not given)
O=c1c2sc3ccccc3c2n(Cc2cccc(F)c2)c(=O)n1CCc1ccccc1
Cc1nc2nc(NC(=O)c3ccc(C(C)(C)C)cc3)[nH]n2c(=O)c1C
O=C(COC(=O)c1cn(-c2ccccc2)nc1-c1cccnc1)NC1CC1
CCOC(=O)Cc1ccc(NC(=O)c2ccc([N+](=O)[O-])cc2)cc1
Cc1ccc(CCNC(=O)c2cnc3c(-c4ccc(F)cc4)c(C)nn3c2C)cc1
COc1ccccc1/C=C1\SC(=S)N(CCC(=O)Nc2ccc(C(=O)O)c(O)c2)C1=O
O=C(CCn1c(=O)c2ccccc2n(Cc2cccc(F)c2)c1=O)NCc1ccc2c(c1)OCO2
CCc1nn(CC(=O)NCc2ccc(C)cc2)c(=O)c2cc3occc3n12
CCCCCC(=O)c1c(O)cc(OC)c(Cl)c1O
Cc1ccc(SSc2cc(C)ccc2N)c(N)c1
COc1ccc2[nH]cc(CCNc3ncncc3-c3ccccc3C)c2c1
Cn1c(=O)c2c(nc(CN3CCN(c4ccccc4F)CC3)n2Cc2ccc(F)cc2)n(C)c1=O
